# Data reported in article PMC4336329 (PLoS ONE, 2015).
# The campaign covered roughly 310,000 compounds. About 14,000 (4.5%) showed an effect of 50% or more. The effect is printed as a negative number. The list shows a part of the results.
# Molecular target: human ether-à-go-go-related gene (hERG) potassium channel (human, UniProt Q12809)
# Assay: primary screen, population patch clamp on CHO cells stably expressing hERG
# 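Note: peak tail current of the secondary pulse compared with the same well before compound.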
# human ether-à-go-go-related gene (hERG) potassium channel, sequence (Q12809 whole entry, looked up): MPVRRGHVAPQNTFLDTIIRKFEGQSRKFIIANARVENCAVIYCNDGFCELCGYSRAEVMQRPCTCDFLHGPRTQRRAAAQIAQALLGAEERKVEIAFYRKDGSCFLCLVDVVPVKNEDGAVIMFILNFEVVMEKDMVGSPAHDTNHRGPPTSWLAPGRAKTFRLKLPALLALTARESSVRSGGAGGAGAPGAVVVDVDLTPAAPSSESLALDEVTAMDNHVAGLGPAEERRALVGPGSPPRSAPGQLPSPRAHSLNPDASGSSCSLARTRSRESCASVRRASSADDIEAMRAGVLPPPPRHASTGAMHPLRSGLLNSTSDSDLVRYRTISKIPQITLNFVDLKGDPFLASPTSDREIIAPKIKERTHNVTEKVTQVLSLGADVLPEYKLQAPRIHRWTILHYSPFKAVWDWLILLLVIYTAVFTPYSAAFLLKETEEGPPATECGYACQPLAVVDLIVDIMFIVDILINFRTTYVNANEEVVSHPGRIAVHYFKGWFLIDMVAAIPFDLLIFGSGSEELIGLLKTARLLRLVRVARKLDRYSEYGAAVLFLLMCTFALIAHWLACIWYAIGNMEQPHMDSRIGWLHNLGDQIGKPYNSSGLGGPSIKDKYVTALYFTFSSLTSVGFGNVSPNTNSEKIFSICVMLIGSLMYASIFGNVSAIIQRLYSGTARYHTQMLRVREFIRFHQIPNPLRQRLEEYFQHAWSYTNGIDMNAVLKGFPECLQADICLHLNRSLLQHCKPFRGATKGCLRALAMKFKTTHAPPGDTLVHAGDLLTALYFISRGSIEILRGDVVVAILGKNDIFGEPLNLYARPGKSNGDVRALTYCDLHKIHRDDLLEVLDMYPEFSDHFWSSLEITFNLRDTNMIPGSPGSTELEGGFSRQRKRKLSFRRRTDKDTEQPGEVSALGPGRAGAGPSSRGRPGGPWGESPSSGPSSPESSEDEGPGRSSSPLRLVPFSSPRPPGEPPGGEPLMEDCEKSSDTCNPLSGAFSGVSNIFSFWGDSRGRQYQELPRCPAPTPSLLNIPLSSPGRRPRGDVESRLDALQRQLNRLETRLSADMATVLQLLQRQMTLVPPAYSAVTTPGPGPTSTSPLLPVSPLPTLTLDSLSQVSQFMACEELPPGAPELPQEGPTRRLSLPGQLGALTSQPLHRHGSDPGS
row,SMILES,"hERG current change (%, negative = inhibition) at 10uM"
1,C(=C\c1ccccc1)/CSc1ccccn1,4.22%
2,C=CCOc1ccc(NC(=O)C(=O)NCCCn2ccnc2)cc1,-16%
3,CC1(C)C(=O)Nc2ccccc2N1C(=O)COc1cccnc1[N+](=O)[O-],2.46%
4,CCOC(=O)C1CCN(Cc2cn[nH]c2-c2ccccc2)CC1.O=C(O)C(=O)O,-9.8%
5,Cc1cccc(Cn2c(SCCN3CCOCC3)nc3c2c(=O)n(C)c(=O)n3C)c1,-26.2%
6,Cc1ccccc1NC(=S)N(Cc1ccccn1)Cc1ccccc1Cl,-15.6%
7,CCc1ccc(C(=O)COC(=O)c2n[nH]c3ccccc23)cc1,6.65%
8,O=c1[nH]c(SCc2c(Cl)cccc2Cl)nc2ccccc12,-6.38%
9,Cc1cc(C(=O)N2CCCC(N3CCN(c4ccc(F)cc4)CC3)C2)c(C)o1 (stereo not drawn),-59.1%
10,O=C(O)/C=C/C(=O)Nc1ccc(Cc2ccc(NC(=O)/C=C/C(=O)O)cc2)cc1,19.6%
11,O=c1[nH]c(=S)n(CCC2=CCCCC2)c(O)c1/C=N/N1CCOCC1,-41.8%
12,CC(C)NC(=O)N(Cc1ccc(Cl)cc1)Cc1cccs1,-10.4%
13,CNC(=O)c1ccc(N(Cc2ccccc2C)S(C)(=O)=O)cc1,-6%
14,O=C(NNC(=S)NCc1ccccc1)c1ccc2c(c1)OCO2,8.77%
15,O=C(CN1CCN(S(=O)(=O)c2ccc(Cl)c(Cl)c2)CC1)N1CCCCC1,-53.5%
16,CC1CCCC(NC(=O)CCC(=O)N2CCOc3ccccc32)C1C (stereo not drawn),-1.16%
17,CN(Cc1ccon1)C(=O)CCc1nnc(CCCCc2ccccc2)o1,0.885%
18,Cc1cc(C)c(S(=O)(=O)N2CCCc3ccccc32)c(C)c1,6.75%
19,CCc1cc2c(s1)NC(=O)CN=C2c1cccs1,-26.4%
20,Brc1ccc2ncnc(Nc3cccc4ccccc34)c2c1,-0.625%
21,S=c1[nH]nc(Cc2cccc3ccccc23)n1-c1ccccc1,1.39%
22,CCn1c(SCC(=O)N2CCCC2=O)nnc1-c1cccs1,16.4%

row,SMILES,"hERG current change (%, negative = inhibition) at 10uM"
1,Fc1cccc2sc(Nc3nc4cc5c(cc4s3)OCCO5)nc12,20.4%
2,Cc1ccc(C(C(=O)NC2CCCC2)N(Cc2cccs2)C(=O)c2csnn2)o1 (stereo not drawn),-15.9%
3,N#Cc1c(-c2ccccc2)nc2n(-c3ccccc3)nc(C(=O)Nc3ccccc3)n2c1=O,7.12%
4,CCCCc1ccc(S(=O)(=O)N2CCN(C(=O)c3ccco3)CC2)cc1,-66.5%
5,Cn1c(SCC(=O)N2CCN(c3ccccc3)CC2)nnc1-c1ccco1,-14.3%
6,Cc1ccc(S(=O)(=O)N2CCC(C(=O)Nc3nnc(C)s3)CC2)cc1,13.9%
7,C=CCNC(=O)c1onc(CSc2ccc(F)cc2)c1C(=O)O,-1.83%
8,Cc1cccc(-c2ocnc2C(=O)Nc2ccccc2C(=O)N2CCCC2)c1,-37%
9,COc1ccc2nc(N(CCN(C)C)C(=O)/C=C/c3cccs3)sc2c1.Cl,-55.1%
10,COc1ccc(/C=N\NC(=O)COc2ccccc2)c(C(=O)O)c1OC,19.4%
11,COc1ccc(C2C(C(=O)N3CCN(C)CC3)c3ccccc3C(=O)N2C2CCCCC2)cc1 (stereo not drawn),5.26%
12,COc1ccc([N+](=O)[O-])cc1N(CC(O)CN1C(=O)NC(C)(C)C1=O)S(=O)(=O)c1ccccc1 (stereo not drawn),10.7%
13,Cc1cc(SCC(=O)NCC(c2cccs2)N2CCOCC2)c(C)cc1Br (stereo not drawn),-16.6%
14,COc1ccccc1CNC(=O)C1CCN(S(=O)(=O)c2ccc3c(c2)OCCCO3)CC1,-12.5%
15,O=C(Nc1ccc2c(c1)OCO2)c1noc2c1CCCC2,4.55%
16,O=C(Nc1cc(Cl)cc(Cl)c1)C(NCCO)c1ccccc1 (stereo not drawn),11.9%
17,Cc1ccc(F)cc1NC(=O)CCOc1ccccc1,0.177%
18,COc1cc(NC(=O)CCn2c(=O)[nH]c3ccsc3c2=O)cc(OC)c1,-5.44%
19,Cc1ccc(NC(=O)C2CCC(CNC(=O)[C@@H]3Cc4ccccc4CN3)CC2)c(C)c1 (stereo partly drawn),6.43%
20,OCCC1CN(Cc2c(F)cccc2Cl)CCN1C1CCCCC1 (stereo not drawn),-5.6%
21,Cc1ccc(O)c(NC(=O)c2cc(-c3ccc(F)cc3)on2)c1,6.44%
22,OC(COCc1ccco1)CN1CCN(C(c2ccccc2)c2ccccc2)CC1 (stereo not drawn),-73.4%

row,SMILES,"hERG current change (%, negative = inhibition) at 10uM"
1,O=C(CCS(=O)(=O)c1ccccc1)Nc1ccc(-c2nc3ccccc3s2)cc1,10.7%
2,CC1=N/C(=C\c2ccc([N+](=O)[O-])cc2)C(=O)N1c1ccc(Cl)cc1,1.51%
3,COC(=O)[C@@H]1C[C@H]2CC[C@H](O)C[C@H]2N1Cc1ccc(C(C)(C)C)cc1,8.61%
4,CS(=O)(=O)NCc1ccccc1Br,13.5%
5,N#C/C(=C\c1cn(CCOc2ccccc2F)c2ccccc12)C(=O)NCc1cccs1,3.65%
6,CCn1c(SCC(=O)N2CCC(C(N)=O)(N3CCCCC3)CC2)nnc1-c1ccccc1,14.8%
7,O=C(c1ccccc1)c1nccc2ccccc12,-9.17%
8,CCCNC(=S)N1CCN(c2nc(-c3cccc(OC)c3)cs2)CC1,4.31%
9,CN1CCN(CC(O)COc2ccc(C(=O)O)cc2)CC1 (stereo not drawn),16.3%
10,Cc1cc(-c2ccccc2)[nH]c(=O)c1S(=O)(=O)c1ccccc1,8.32%
11,O=C(Cc1ccccc1)Nc1cccc(N2C(=O)C=CC2=O)c1,-4.45%
12,CCCCCCN1C=CC(=C/C=C(\C#N)C(=O)OCC)C=C1,-4.32%
13,COc1ccc(-c2nnc3ccc(SCC(=O)NCc4ccco4)nn23)cc1OC,-28.3%
14,CCc1cccc(C)c1NC(=O)CO/N=C(\C)c1cc2ccccc2o1,-0.19%
15,Cn1cc(C(=O)N/N=C/c2ccc(Br)c([N+](=O)[O-])c2)c2ccccc21,9.26%
16,O=C(O)CCCCCNC(=O)CSc1nnc(-c2ccco2)n1-c1ccccc1,11.9%
17,CNC(=O)[C@H]1O[C@@H](n2cnc3c(NCc4cccc(I)c4)ncnc32)[C@H](O)[C@@H]1O,-14.1%
18,CC(C)NC(=O)Nc1n[nH]c(Nc2ccc(Cl)cc2)n1,11.1%
19,O=C(c1cc(-c2cccs2)on1)N1CCN(c2ccc(F)cc2)CC1,-8.74%
20,O=C(O)CCc1nn2cc(-c3ccccc3)nc2[nH]c1=O,12.9%
21,Cn1c(SCC(=O)O)nnc1-c1cccc(NC(=O)c2cccc3ccccc23)c1,7.15%
22,COc1cc(OC)cc(OCC(O)Cn2ccnc2)c1 (stereo not drawn),-1.17%

row,SMILES,"hERG current change (%, negative = inhibition) at 10uM"
1,COc1ccc(CNC(=O)CCc2c(C)nc3ncnn3c2C)cc1,-5.39%
2,O=c1cc(N2CCc3ccccc32)[nH]c(=O)n1-c1ccc(Br)cc1,7.88%
3,Cc1ccc(Cl)cc1N(CC(=O)Nc1cccc(N(C)S(C)(=O)=O)c1)S(C)(=O)=O,-10.7%
4,COc1ccc(CC(=O)N2N=C(C)CC2(O)c2cccnc2)cc1 (stereo not drawn),7.26%
5,COc1ccc(NC(=O)C(C)Sc2nnc3c4c(nc(-c5ccc(OC)cc5)n23)CC(C)(C)OC4)cc1 (stereo not drawn),3.89%
6,COc1ccc(N2CC(C(=O)Nc3ccc(S(=O)(=O)Nc4nccs4)cc3)CC2=O)c(OC)c1 (stereo not drawn),-7.75%
7,CCCC[C@@H]1CN=C(N)N1CCCC,22.9%
8,COc1ccc(OC)c(C(C(=O)NCc2ccco2)N(C(=O)Cn2nnc3ccccc32)C2CC2)c1 (stereo not drawn),-3.32%
9,CCOC(=O)c1[nH]c(C)c(C(=O)NC2CCCCC2)c1C,9.1%
10,Cn1c(-c2cccc(Br)c2)cnc1NCc1cccnc1,-59.6%
11,CCOC(=O)c1csc(N)c1-c1ccc([N+](=O)[O-])cc1,6.52%
12,O=C(COC(=O)c1ccc2[nH]c3c(c2c1)CCCC3)Nc1ccccc1Cl,26.1%
13,Cc1ccc(N(CCC#N)C(=O)COC(=O)c2cc(C)oc2C)cc1,-15.3%
14,CCCCOC(=O)c1ccc(NC(c2ccc(C)cc2)P(=O)(OC)OC)cc1 (stereo not drawn),-11.5%
15,CC(C(=O)NCCS(=O)(=O)c1ccc(Br)cc1)S(=O)(=O)c1ccc(Cl)cc1 (stereo not drawn),-34.3%
16,Cn1ncc2c(Nc3cc(Cl)cc(Cl)c3)ncnc21,11.9%
17,COC(=O)Cn1c(=O)c2c(nc3n2CCCN3CCc2ccccc2)n(C)c1=O,-39.6%
18,CCCCn1c(N)c(N(CCOC)C(=O)c2cc(S(=O)(=O)N3CCCCC3)ccc2Cl)c(=O)[nH]c1=O,8.12%
19,COC(=O)c1ccccc1NC(=O)Nc1cccs1,18%
20,CC(C(=O)Nc1nc(-c2ccc(F)c(F)c2)cs1)N1C(=O)C2CC=CCC2C1=O (stereo not drawn),-5.3%
21,Cn1cnnc1SCC(=O)Nc1cccc(C(=O)O)c1,7.72%
